# Test results as given in PubChem BioAssay AID1814 (Broad Institute, 2009).
# Hit rate of the full screen: of about 300,000 compounds, about 22,000 (7.3%) were called active. The inconclusive results got no clear call from the source; some entries with a clear call stand among them for comparison. No stated cut-off is given here; in the data, active means activity score below about -60%; inconclusive means mostly about -28% to -61%; inactive means positive scores.
# Assay: Activators via SNCA 5'UTR binding, MLPCN (AID 1814)
# Details: alpha-synuclein 5'UTR reporter, activators screen; hits give low values; tested at 7.5 µM
row,Structure (SMILES),activity score
1,CCOc1ccc2nc(/N=C/c3nc(-c4ccccc4)oc3O)sc2c1,inconclusive: -49.1%
2,O=C(CNCc1ccccc1)Nc1ccc(F)cc1,inconclusive: -45.2%
3,CCOC(=O)COn1c(=O)c(-c2ccc(Br)cc2)[n+]([O-])c2ccccc21,inconclusive: -52.5%
4,Cc1ccc(-c2cc(C(=O)N3CCCC3)no2)cc1,inactive: 53.4%
5,O=C(CC1SCCNC1=O)Nc1ccc(Cl)cc1 (stereo not given),inconclusive: -55.6%
6,O=C(N/N=C/c1cccc([N+](=O)[O-])c1)c1cc2c(ccc3ccccc32)o1,inconclusive: -52.5%
7,O=C(Cn1nc(C(=O)O)c2ccccc2c1=O)Nc1ccc2c(c1)C(=O)c1ccccc1C2=O,inconclusive: -56.9%
8,COc1ccc(NC(=O)Nc2cc(C)ccc2F)cc1OC,active: -76.7%
9,CCOc1ccc(-n2c(SCc3ccc([N+](=O)[O-])cc3)nnc2-c2ccccc2)cc1,inactive: 56%
10,N#Cc1ccc(NC(=O)Nc2ccc(Oc3ccc(NC(=O)Nc4ccc(C#N)cc4)cc3)cc2)cc1,inactive: 73.7%
11,COC(=O)CC1=C(C(=O)OC)C(c2ccncc2)C(C#N)=C(N)O1 (stereo not given),inconclusive: -49.7%
12,Cc1ccc(C(=O)NCCc2cccs2)cc1,inactive: 73.2%
13,Cc1ccc(Nc2cc(-n3cccn3)ncn2)c(C)c1,active: -170%
14,O=C(c1cc(Br)c(Br)s1)N1CCN(c2ccccn2)CC1,active: -65.5%
15,Cc1ccccc1C(=O)/C(C#N)=N/Nc1c(C)n(C)n(-c2ccccc2)c1=O,inactive: 78.7%
16,O=C(Nc1ccc(N2CCOCC2)cc1)c1cnsn1,inactive: 106%
17,OC1CCN(Cc2ccc(OCc3ccccc3)cc2)CC1,active: -69.7%
18,O=C(Nc1ccccc1)N1CCN(Cc2ccc(Cl)cc2)CC1,inconclusive: -33.8%
19,O=C(CSc1ncccc1C(=O)O)c1ccc2ccccc2c1,inconclusive: -48.7%
20,COc1ccc(NC(=O)N2CCCc3ccccc32)cc1,inconclusive: -45.6%
21,CCOC(=O)c1c(CSc2ccc(CC)cc2)oc2ccc(O)c(CN(C)C)c12,inactive: 65.6%
22,Cc1ccc(NC(=O)NC(=O)CSc2nnc(-c3ccc(OC(F)F)cc3)n2N)c(C)c1,inconclusive: -47.8%
23,COc1ccc(/C=N/Nc2nc(Nc3ccccc3)nc(N3CCCCC3)n2)c(OC)c1,inconclusive: -45.4%
24,CCOC(=O)c1oc2ccccc2c1NC(=O)COc1ccc(F)cc1,inactive: 61.2%

row,Structure (SMILES),activity score
1,CN(CCO)c1ccc(/C=N/Nc2nncc3ccccc23)cc1,inactive: 57.2%
2,O=c1c(Cl)nc2cc(Cl)ccc2n1CCNc1ncc(C(F)(F)F)cc1Cl,inactive: 110%
3,O=C(/C=C/c1cccs1)Nc1ccc(Br)cn1,inconclusive: -49.6%
4,O=C(N/N=C/c1ccccn1)c1cc(C2CC2)[nH]n1,inconclusive: -59.6%
5,Cc1cc2oc(=O)c(CC(=O)NCCCN(C)C)c(C)c2c2occ(C(C)(C)C)c12,inactive: 61%
6,Cc1nnc(C)c2c(C)n(Cc3ccc4c(c3)OCO4)c(C)c12,inconclusive: -17%
7,O=C(Nc1cccc2ccccc12)c1ccc(F)cc1,inconclusive: -49.6%
8,O=[N+]([O-])c1ccc(O)c(/C=N/Nc2ccccn2)c1,inactive: 95.2%
9,COc1cccc(C(=O)Cn2c(=N)n(C)c3ccccc32)c1,inactive: 86.4%
10,Oc1ccc(O)c(-c2cnns2)c1,active: -70.5%
11,Nc1nc(Nc2ccccc2)nc(NCc2ccccc2)c1[N+](=O)[O-],inactive: 84.2%
12,Cc1ccc(-c2csc3nc4cc(C(N)=O)ccc4c(=O)n23)cc1,inconclusive: -37.3%
13,Cc1c(-c2ccc(Cl)cc2)oc(=O)c2c(N)n(-c3ccccc3)nc12,inconclusive: -58%
14,O=C(COc1ccc(Cl)cc1Cl)Nc1ccccc1NS(=O)(=O)c1cccs1,inconclusive: -56.9%
15,Cn1c(SCC(=O)NC2CCCCC2)nnc1-c1cc2cc(Cl)ccc2o1,inconclusive: -48%
16,CN(C)CCN(C(=O)C1=COCCO1)c1nc2ccc(Cl)cc2s1,inconclusive: -43%
17,O=C(NCCc1ccccc1)C(=O)Nc1nccs1,active: -83.9%
18,COc1cc2nc(N3CCN(c4cc(C)ccc4C)CC3)nc(N)c2cc1OC,inactive: 94.5%
19,CCCSC1=C(C#N)C(c2cccnc2)C(C(=O)OCC)=C(c2ccccc2)N1 (stereo not given),inconclusive: -44.6%
20,COc1ccc(CCCC(=O)N/N=C/c2cccc(OC)c2O)cc1C,inactive: 74.1%
21,Clc1ccccc1-c1nnc2sc(-c3cccs3)nn12,inconclusive: -56.2%
22,O=C(CSc1nnc(-c2ccco2)n1Cc1ccccc1)c1ccccc1,active: -104%
23,CCCCNC(=S)Nc1ccc(Cl)cc1,inconclusive: -59.2%
24,CC(C)Nc1ccc(Nc2ccnc3cc4ccccc4cc23)cc1,inactive: 98.7%

row,Structure (SMILES),activity score
1,COc1ccc(/C(N)=N/OC(=O)c2ccco2)cc1,inactive: 60.2%
2,COc1cc(C2=NOC(C(=O)NCc3ccc(F)cc3)C2)cc(OC)c1OC (stereo not given),inactive: 77.1%
3,CN1CCN(Cc2ccc(OCc3ccccc3)cc2)CC1,inconclusive: -41.9%
4,Cc1ccc(-c2cc(C(=O)Nc3cccnc3)c3ccccc3n2)o1,inconclusive: -51%
5,CCOC(=O)c1c(CN(CC)CC)n(C)c2cc(Br)c(O)cc12,inconclusive: -50%
6,O=c1cc(O)c2sc3nc(-c4ccccc4)cc(C(F)(F)F)c3c2[nH]1,inconclusive: -55.5%
7,COc1ccc2c(c1)CCc1c(C(=O)NCc3ccco3)noc1-2,active: -120%
8,Cn1c(O)c(N=NC(=O)c2ccco2)c2ccccc21,active: -80%
9,Cc1ccc(-c2cc(C(F)F)nc(NCC3CCCO3)n2)cc1 (stereo not given),inconclusive: -53%
10,CC(C)=CC(=O)Nc1nnc(-c2cccnc2)s1,active: -67.4%
11,CCOC(=O)c1cnc(SCc2cccc(C)c2)nc1N,active: -89.3%
12,N/C(=N\OC(=O)c1ccc2ccccc2c1)c1cccc([N+](=O)[O-])c1,active: -67%
13,CC(/C=N/NC(=O)c1cc(C(C)(C)C)[nH]n1)=C\c1ccccc1,inconclusive: -48%
14,CN(C)CCN(C)Cc1c2ccccc2c(CN(C)CCN(C)C)c2ccccc12,inconclusive: -48.9%
15,CC(C)NC(=O)c1cc(-c2cccs2)on1,active: -127%
16,O=C(CCl)Oc1ccc2occ(C(=O)c3cccs3)c2c1,active: -193%
17,Cc1cc(N2CCN(c3nc(-c4ccc([N+](=O)[O-])cc4)cs3)CC2)c2ccccc2n1,inactive: 65.7%
18,Cc1cc(C)nc(Nc2cccc(Cl)c2)n1,inconclusive: -49.6%
19,O=C(N/N=C(\Cc1ncc[nH]1)c1ccccc1)c1ccccc1,inactive: 74.2%
20,CCOC(=O)/C=C/S(=O)(=O)c1ccc(NC(C)=O)cc1,inconclusive: -57.8%
21,N#Cc1ccc(OCC(=O)N/N=C/C2CC=CCC2)cc1 (stereo not given),inconclusive: -40.6%
22,COc1ccc2cc(CN(CC3CCCO3)C(=O)Nc3ccccc3OC)c(=O)[nH]c2c1 (stereo not given),inactive: 66.4%
23,O=C(Nc1ccc2c3c(cccc13)CC2)c1ccco1,active: -64.7%
24,CCOC(=O)C1(CC2CCCCO2)CCN(C(=O)Nc2ccc3c(c2)OCO3)CC1 (stereo not given),inconclusive: -55.7%

row,Structure (SMILES),activity score
1,CCOc1ccc(CN(C(=O)c2cc3ccccc3oc2=O)C2CCS(=O)(=O)C2)cc1 (stereo not given),active: -78%
2,O=[N+]([O-])c1ccc2nc(-c3cccnc3)[nH]c2c1,inconclusive: -54.5%
3,COc1ccccc1Nc1nc(-c2ccc3c(c2)NC(=O)CO3)cs1,inconclusive: -52.4%
4,CCOC(=O)C1(Cc2ccc(OC)cc2)CCN(C(=O)c2cncs2)CC1,inconclusive: -59.5%
5,Nc1nccnc1C(=O)N/N=C/c1ccco1,inconclusive: -61.2%
6,CN(C)c1ccc(CNc2ncc(Br)cc2Br)cc1,active: -98.3%
7,CCOC(=O)c1ccc(NC(=O)c2nc(S(=O)(=O)Cc3ccccc3)ncc2Cl)cc1,inactive: 54.4%
8,Cc1ccc2nc3ccc(N4CCCCCCC4)nn3c(=O)c2c1,active: -150%
9,COc1ccc(C(=O)CN2C3=NCCCN3c3ccccc32)cc1OC,inconclusive: -42.1%
10,Cc1cc2c(c(SCC(=O)NCCc3ccccc3)n1)C(=O)OC2,inconclusive: -53.4%
11,NS(=O)(=O)c1ccc(CNC(=O)c2cc(-c3ccccn3)nc3ccc(Cl)cc23)cc1,inconclusive: -42%
12,Cc1c(C(=O)N/N=C/C(C)C)[nH]c2c([N+](=O)[O-])cccc12,inactive: 68%
13,COc1ccccc1-c1n[nH]c(=S)n1-c1ccccc1,inconclusive: -59.7%
14,Cc1c(Cl)cccc1Nc1nc(N)nc(CN2CCc3ccccc3C2)n1,inconclusive: -56.2%
15,COc1ccc(C(=O)Nn2c(SCc3cccc([N+](=O)[O-])c3)nc3ccccc3c2=O)cc1,inactive: 66.2%
16,Nc1nc(N)nc(COc2ccccc2)n1,active: -106%
17,CCS(=O)(=O)c1ccc(O)c(NC(=O)/C=C/c2ccccc2)c1,active: -110%
18,N#CC1=C(N)OC2=C(CCC/C2=C/c2ccoc2)C1c1ccoc1 (stereo not given),inconclusive: -57.8%
19,[2H]C(CCOS(N)(=O)=O)c1ccc(C(C)(C)C)cc1 (stereo not given),inactive: 80%
20,Nc1c(-c2ccc(Cl)cc2)nnn1-c1ccccc1,active: -159%
21,Cc1cccc(Cl)c1OCCCCn1ccnc1,inconclusive: -40.5%
22,COc1ccc(/C=C/C(=O)c2ccc[nH]2)c(OC)c1OC,active: -194%
23,O=C1c2ccccc2NC2(CCCCC2)N1N=C1CCCCC1,inconclusive: -60.6%
